The results in this text go back to PubChem BioAssay AID463173 (ICCB-Longwood Screening Facility, Harvard Medical School, 2010).

Molecules are shown by their SMILES. Hit rate of the full screen: of about 52,000 compounds, about 1,700 (3.3%) were called active. Rule as the data show it: active = survival mostly below about 52% (no sharp cut-off); inactive = mostly above about 56%. This is one part of the list.

This test relates to Wild type. The experiment in a line: growth inhibition of S. aureus wild type versus tarO mutant, primary screen, teichoic acid synthesis inhibitors, RN4220, OD600 (AID 463173). The note with it: S. aureus RN4220 wild type/DeltatarO growth, OD600, 18 h, hits give low values, screened at 18.75 µg/mL (by protocol).
Consider `CC(NC(=O)CN1C(=O)c2cccnc2Oc2ccc(Cl)cc21)c1ccccc1` (stereo not given), for which the survival was inactive: 74%. As for `COc1ccccc1NC(=O)CCN1CC(C)CC(C)C1` (stereo not given), the figure is inactive: 107%; as for `CCOc1ccccc1CNc1nc2nc(C)cc(C)n2n1`, inactive: 88%; as for `O=C(NCCCN1CCN(c2ccccc2)CC1)c1ccc2nc(Cc3ccccc3)oc2c1`, inactive: 79%. As for `Cc1ccc(Cn2c(C(C)NC(=O)c3ccccc3)nc3ccccc32)cc1` (stereo not given), the figure is inactive: 91%; as for `Nc1ccc(Oc2ccc(C(=O)O)c(C(=O)O)c2)cc1`, inactive: 106%. `CCOC(=O)c1c(C)[nH]c(CCC(=O)Nc2ccc(OC)c(OC)c2)c1C`: the survival was inactive: 65%. The value for `Cc1noc(C)c1S(=O)(=O)N1CCC(C(=O)N2CCN(c3cccc(C(F)(F)F)c3)CC2)CC1` was inactive: 81%; that for `CC(C)NC(=O)CCC(=O)N1Cc2ccccc2Oc2ncccc21` was active: -2%. As for `Cn1ccc2cc(S(=O)(=O)N3CCN(C(=O)Nc4ccc(F)cc4F)CC3)ccc21`, the figure is inactive: 82%; as for `Cc1nc(N2CCCCC2)c(C#N)c2c1COC(C)(C)C2`, inactive: 111%; as for `CCC1CCCCN1C(=O)CSc1nc2c([nH]c3ccccc32)c(=O)n1-c1ccc(OC)cc1` (stereo not given), inactive: 19%. As for `C=Cn1c(=N)n(C)c2ccccc21`, the figure is inactive: 111%; as for `COc1ccc(C2CC(=O)c3cc(-c4nc(-c5ccc(Cl)cc5)cs4)c(=O)[nH]c3C2)cc1OC` (stereo not given), inactive: 103%. For `CC1Cc2ccccc2N1S(=O)(=O)c1nnc(NC(=O)c2ccccc2)s1` (stereo not given), the survival is inactive: 18%. As for `COC(=O)c1nnn(CC(=O)NC(=O)Nc2c(C)cccc2C)c1C(=O)OC`, the figure is inactive: 65%; as for `CCn1cc2nc(SCC(=O)Nc3ccccc3C(F)(F)F)n(Cc3ccc(C)cc3)c(=O)c2n1`, inactive: 119%. As for `NS(=O)(=O)c1ccc(NC(=O)C2Cc3ccccc3N2C(=O)c2ccccc2)cc1` (stereo not given), the survival was inactive: 86%. The value for `CCn1cc(C(=O)N2CCN(c3cccc(C)c3C)CC2)c2cc(OC)c(OC)cc2c1=O` was inactive: 150%. The value for `Cc1ccccc1C(=O)n1nc(-c2cccnc2)nc1NCc1ccccc1` was inactive: 98%; that for `CCCCN(CC)CCCNC(=O)c1nn(C)c2c1CSc1ccccc1-2` was inactive: 100%; that for `COc1ccc(OC)c(CCNC(=O)Cn2ncc3c([nH]c4ccccc43)c2=O)c1` was inactive: 124%. The value for `CC(C)Oc1ccc(-c2nc3c(C#N)c[nH]n3c2NC2CCCCC2)cc1` was inactive: 55%. Turning to `COc1ccc(N2CC(NC(=O)C(c3ccccc3)c3ccccc3)CC2=O)cc1OC` (stereo not given), the survival is inactive: 72%. As for `COCCCNC(=O)CCC(=O)NNc1nc2ccccc2c2nc(C)nn12`, the figure is inactive: 81%. The value for `COc1ccccc1CNC(=O)c1ccc2nc(CCc3ccccc3)oc2c1` was inactive: 77%. The value for `COc1ccc(-c2nc(SCC(=O)Nc3c(C)cc(C)cc3C)n[nH]2)cc1` was inactive: 78%. Turning to `COc1ccc(Cn2c(=O)c3cccnc3n(Cc3cccc(F)c3)c2=O)cc1`, the survival is inactive: 90%.

In the case of `COc1cccc(-c2nc(S(=O)(=O)c3ccc(C)cc3)c(N3CCCCC3)o2)c1`, the survival was inactive: 45%.

For `COC(=O)c1ccc(C(=O)OC)c(NC(=O)c2ccc(-c3ccccc3)s2)c1`, the survival is inactive: 130%.

With `Cc1cccc(C)c1NC(=O)c1sc(-n2nc(C)c(Cc3ccccc3)c2C)nc1C`, the survival was inactive: 81%. As for `O=C(CSc1ncc(S(=O)(=O)c2ccc(Cl)cc2)c(=O)[nH]1)Nc1cccc(C(F)(F)F)c1`, the figure is inactive: 78%; as for `N#Cc1cc(C#N)c(SCC(N)=O)nc1N`, inactive: 106%. As for `Cc1cc(OCC(=O)N(Cc2ccc(N(C)C)cc2)CC2CCCO2)ccc1Cl` (stereo not given), the figure is inactive: 71%; as for `CCOC(=O)c1ccccc1NC(=O)CSc1nccn1Cc1ccco1`, inactive: 70%. As for `COc1ccccc1NC(=O)c1c(C)cc(C)nc1SCC(=O)c1ccc(Cl)cc1`, the figure is inactive: 105%; as for `CC(C)Oc1ccc(C(=O)N(Cc2ccco2)Cc2cccs2)cc1`, inactive: 70%; as for `COc1ccc(-c2cc3nc(C)c(CCC(=O)NC4CCCCC4)c(C)n3n2)c(OC)c1`, inactive: 70%. With `COc1cc(C2Nc3c(C)cc(C)cc3-c3cc(C)nn32)cc(OC)c1O` (stereo not given), the survival was inactive: 97%.

For the compound `O=C(c1cccn1-c1nnc(N2CCCC2)s1)N1CCN(c2ccc(Cl)cc2)CC1`, the survival is inactive: 45%.

With `CCCS(=O)(=O)NCCc1sc2nc(-c3ccc(F)cc3)nn2c1C`, the survival is inactive: 60%. For the compound `Cc1cc(C)n(-c2nnc(Nc3ccc(C)c(Cl)c3)c3ccccc23)n1`, the survival was inactive: 127%. As for `Cn1c(=O)[nH]c2cc(-c3noc(-c4ccc(C#N)cc4)n3)ccc21`, the figure is inactive: 70%; as for `Cc1ccc2c(c1)C(c1ccccc1)N(C(=O)Cc1ccc(F)cc1)CC(=O)N2` (stereo not given), inactive: 76%; as for `Cn1nnc(C(O)CN2CCOCC2)n1` (stereo not given), inactive: 114%. The value for `COc1ccc(Cn2c(C(=O)O)c(CNCCc3cc(OC)ccc3OC)c3ccc(C)cc32)cc1` was inactive: 100%; that for `COc1ccc(C2=NC(C)(C)N(CC(=O)Nc3cccc(C)c3)C2=O)cc1` was inactive: 75%; that for `CN(C)C(=O)c1c(NC(=O)c2ccccc2F)sc2c1CCCC2` was inactive: 82%. The value for `CC(=O)Nc1ccc(S(=O)(=O)NCC2CCC(C(=O)NCCN(CC(C)C)CC(C)C)CC2)cc1` (stereo not given) was inactive: 55%; that for `Cc1ccc2[nH]c(=O)c(CNC3CCCC3)cc2c1` was inactive: 107%; that for `COc1ccccc1NC(=O)CSc1nc2ccccc2cc1C#N` was inactive: 113%.

Consider `Cc1ccc(S(=O)(=O)Nc2nc3n(n2)C(c2ccc(F)cc2)C=C(c2ccccc2)N3)cc1` (stereo not given), for which the survival is inactive: 33%. The value for `CC1=C(C(=O)Nc2ccc(Cl)cc2)C(CC(C)C)n2nc(SCc3ccccc3C)nc2N1` (stereo not given) was inactive: 129%; that for `O=C(COc1ccc2ccccc2c1)NC1CC(=O)N(c2cccc(F)c2)C1` (stereo not given) was inactive: 121%; that for `COc1cc(C2C(=O)N(C3CCCCCC3)CC(=O)N2CCc2ccccc2)ccc1OC(C)C` (stereo not given) was inactive: 87%. The value for `Cc1ccc(C)c(-n2c(N)c(C#N)c3nc4ccccc4nc32)c1` was inactive: 149%; that for `COc1ccccc1CNS(=O)(=O)c1cnc(N)nc1` was inactive: 67%.

As for `Cc1nc2ccn(Cc3ccco3)c(=O)c2cc1C(=O)NCc1ccccc1`, the survival was inactive: 71%.

For the compound `COc1cccc(CNc2cc(C)nc3nc(-c4ccc(C)cc4)nn23)c1`, the survival was inactive: 72%. The value for `O=C(NCC(c1ccco1)S(=O)(=O)c1cccs1)c1ccccc1F` (stereo not given) was inactive: 80%; that for `Cc1ccc(N2CC(C)Cn3c2nc2c3c(=O)n(Cc3cccc(Cl)c3)c(=O)n2C)cc1` (stereo not given) was inactive: 77%; that for `COc1ccc(NC(=O)c2oc3ccc(S(=O)(=O)N4CCOCC4)cc3c2C)cc1` was inactive: 136%. In the case of `CCCc1cc(=O)[nH]c2nnc(SCC)n12`, the survival is inactive: 74%.

Regarding `O=c1oc2ccc3ccccc3c2cc1-c1nnc(Nc2ccc(F)cc2)s1`, the survival was inactive: 72%. The value for `COc1ccc(C2c3c(n(C)c4ccccc34)C(=O)N2CC(=O)Nc2cccc(F)c2)cc1` (stereo not given) was inactive: 85%; that for `Cc1ccc(-n2nc3c(=O)n(C(C)C(=O)NCc4ccco4)nc(C)c3c2C)cc1` (stereo not given) was inactive: 60%; that for `Cc1ccc(Cl)cc1N1CCN(CCCNC(=O)c2ccc3nc(N4CCCCC4)sc3c2)CC1` was inactive: 45%. As for `O=C(NC1(C(F)(F)F)NC(=O)N(CCc2ccccc2)C1=O)c1ccc(Cl)cc1` (stereo not given), the figure is inactive: 82%; as for `CCn1ccc2c(OCC(=O)Nc3ccccc3C(F)(F)F)cccc2c1=O`, inactive: 80%; as for `Cn1c(=O)c2c(nc(Sc3nc4ccccc4n3CC(=O)N3CCCCC3)n2C)n(C)c1=O`, inactive: 106%.

Regarding `Oc1c(C(c2ccccc2)N2CCC(O)CC2)sc2nc(-c3ccco3)nn12` (stereo not given), the survival was inactive: 73%. As for `COC(=O)CC1Oc2ccc(Cl)cc2-n2cc(-c3ccccc3)nc21` (stereo not given), the figure is inactive: 96%; as for `CN(C)S(=O)(=O)c1ccc(S(=O)(=O)N2CCC(O)CC2)cc1`, inactive: 103%; as for `CC1CC(C)CN(C(=O)CNCc2ccco2)C1` (stereo not given), inactive: 96%. Consider `CCCCOc1cccc(C(=O)N(Cc2ccc(C)o2)c2ccccn2)c1`, for which the survival was inactive: 86%. As for `CCOc1ccc(CCNC(=O)c2cnc3sc(N4CCCC4)nn3c2=O)cc1`, the figure is inactive: 72%. As for `CC(=O)Nc1ccc(NC(=O)c2ccc3c(c2)N(Cc2cccc(Cl)c2)C(=O)c2ccccc2S3(=O)=O)cc1`, the figure is inactive: 168%; as for `CCOC(=O)C(C)Sc1ccc2nnc(CCNS(=O)(=O)c3ccccc3)n2n1` (stereo not given), inactive: 88%. The value for `CCn1c(CN2CCCCC2)nc2cc(NC(=O)c3cc(OC)c(OC)c(OC)c3)ccc21` was inactive: 85%. Regarding `Cc1ccc(C)c(NC(=O)c2ccc(CN3CC(=O)N4CCCCC4C3=O)cc2)c1` (stereo not given), the survival was inactive: 53%.

For `CC1N=C2c3ccccc3N=C(SCC(=O)NCCc3ccccc3)N2C1=O` (stereo not given), the survival is inactive: 64%. The value for `COc1ccc(Nc2c3c(nc4ccc(NC(=O)c5ccc(F)cc5)cc24)CCCC3)cc1OC` was inactive: 100%; that for `CN(Cc1ccccc1)C(=O)c1nc(-c2ccc(Cl)cc2)n2c1CCCCC2` was inactive: 70%; that for `O=C(Nc1cccc(Cl)c1Cl)c1ccc2c(c1)N(Cc1cccc(Cl)c1)C(=O)c1ccccc1S2(=O)=O` was inactive: 139%. Turning to `Cc1nc2nc(NCc3cccc(Br)c3)[nH]n2c(=O)c1Cc1ccccc1`, the survival was inactive: 68%.

On to `COc1cc2ccccc2cc1C(=O)Nc1cccc(-c2nc3cc(C)c(C)cc3o2)c1C`, for which the survival was inactive: 77%. As for `COc1ccc2oc(=O)c(C(=O)NCCc3c(C)[nH]c4c(Cl)cccc34)cc2c1`, the figure is inactive: 98%; as for `CCc1ccccc1NC(=O)N1CCN(c2cc(-c3noc(C)n3)ccc2C)CC1`, inactive: 159%.

Take `Cc1ccc(CN(C(=O)COc2cccc([N+](=O)[O-])c2)c2ccccn2)o1`: the survival is inactive: 78%. The value for `O=S(=O)(Nc1ccc(Cl)cc1)c1ccc(NS(=O)(=O)c2ccc3c(c2)OCCO3)cc1` was inactive: 28%.
